Test results published in the supplement of paper PMC8728848.
The other results are listed elsewhere or left out.

Legend:
Assay in all cases: glycan array binding signal (z-score within array); higher = stronger binding
Settings in all cases: glycan notation: IUPAC condensed, linker removed; mutation: R343V
[1] = target: Fuc(a1-3)[GalNAc(b1-4)]GlcNAc
Summary of the method: (§1)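 Glycan array data came from 3228 arrays in the Consortium for Functional Glycomics database, and only arrays with an available protein sequence were kept. Glycan names were put into IUPAC-condensed notation, and columns mapping to the same glycan were averaged. The binding signal is a within-array Z-score, averaged across arrays of one protein sequence run at different concentrations or buffers and across linkers. A negative Z-score can be read as non-binding.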

Fuc(a1-4)GlcNAc = target: Fuc(a1-4)GlcNAc
Summary of the method: as §1

Fuc(b1-3)GlcNAc = target: Fuc(b1-3)GlcNAc
Summary of the method: as §1

Gal(a1-2)Gal = target: Gal(a1-2)Gal
Summary of the method: as §1

Gal(a1-3)Gal = target: Gal(a1-3)Gal
Summary of the method: as §1

Gal(a1-3)Gal(b1-3)GlcNAc = target: Gal(a1-3)Gal(b1-3)GlcNAc
Summary of the method: as §1

Gal(a1-3)Gal(b1-4)Glc = target: Gal(a1-3)Gal(b1-4)Glc
Summary of the method: as §1

Gal(a1-3)Gal(b1-4)GlcNAc = target: Gal(a1-3)Gal(b1-4)GlcNAc
Summary of the method: as §1

[2] = target: Gal(a1-3)Gal(b1-4)[Fuc(a1-3)]GlcNAc
Summary of the method: as §1

Gal(a1-3)GalNAc = target: Gal(a1-3)GalNAc
Summary of the method: as §1

[3] = target: Gal(a1-3)[Gal(a1-4)]Gal(b1-4)GlcNAc
Summary of the method: as §1

Gal(a1-4)Gal(b1-4)Glc = target: Gal(a1-4)Gal(b1-4)Glc
Summary of the method: as §1

Gal(a1-4)Gal(b1-4)GlcNAc = target: Gal(a1-4)Gal(b1-4)GlcNAc
Summary of the method: as §1

Gal(a1-4)GlcNAc = target: Gal(a1-4)GlcNAc
Summary of the method: as §1

Gal(a1-6)Glc = target: Gal(a1-6)Glc
Summary of the method: as §1

Gal(b1-2)Gal = target: Gal(b1-2)Gal
Summary of the method: as §1

Gal(b1-3)Gal = target: Gal(b1-3)Gal
Summary of the method: as §1

Gal(b1-3)Gal(b1-4)GlcNAc = target: Gal(b1-3)Gal(b1-4)GlcNAc
Summary of the method: as §1

Gal(b1-3)GalNAc = target: Gal(b1-3)GalNAc
Summary of the method: as §1

[4] = target: Gal(b1-3)GalNAc(b1-3)Gal(a1-4)Gal(b1-4)Glc
Summary of the method: as §1

[5] = target: Gal(b1-3)GalNAc(b1-4)Gal(b1-4)Glc
Summary of the method: as §1

[6] = target: Gal(b1-3)GalNAc(b1-4)[Neu5Ac(a2-3)]Gal(b1-4)Glc
Summary of the method: as §1

Gal(b1-3)GlcNAc = target: Gal(b1-3)GlcNAc
Summary of the method: as §1

[7] = target: Gal(b1-3)GlcNAc(b1-2)Man(a1-3)[Gal(b1-3)GlcNAc(b1-2)Man(a1-6)]Man(b1-4)GlcNAc(b1-4)GlcNAc
Summary of the method: as §1

[8] = target: Gal(b1-3)GlcNAc(b1-3)Gal(b1-3)GlcNAc
Summary of the method: as §1

[9] = target: Gal(b1-3)GlcNAc(b1-3)Gal(b1-4)Glc
Summary of the method: as §1

[10] = target: Gal(b1-3)GlcNAc(b1-3)Gal(b1-4)GlcNAc
Summary of the method: as §1

[11] = target: Gal(b1-3)[Fuc(a1-4)]GlcNAc
Summary of the method: as §1

[12] = target: Gal(b1-3)[Fuc(a1-4)]GlcNAc(b1-3)Gal(b1-3)[Fuc(a1-4)]GlcNAc
Summary of the method: as §1

[13] = target: Gal(b1-3)[Fuc(a1-4)]GlcNAc(b1-3)Gal(b1-4)GlcNAc
Summary of the method: as §1

[14] = target: Gal(b1-3)[Fuc(a1-4)]GlcNAc(b1-3)Gal(b1-4)[Fuc(a1-3)]GlcNAc
Summary of the method: as §1

[15] = target: Gal(b1-3)[GlcNAc(b1-6)]GalNAc
Summary of the method: as §1

[16] = target: Gal(b1-3)[Neu5Ac(a2-6)]GalNAc
Summary of the method: as §1

[17] = target: Gal(b1-3)[Neu5Ac(a2-6)]GlcNAc(b1-6)Gal(b1-4)Glc
Summary of the method: as §1

[18] = target: Gal(b1-3)[Neu5Ac(b2-6)]GalNAc
Summary of the method: as §1

[19] = target: Gal(b1-4)GalNAc(a1-3)[Fuc(a1-2)]Gal(b1-4)GlcNAc
Summary of the method: as §1

[20] = target: Gal(b1-4)GalNAc(b1-3)[Fuc(a1-2)]Gal(b1-4)GlcNAc
Summary of the method: as §1

Gal(b1-4)Glc = target: Gal(b1-4)Glc
Summary of the method: as §1

Gal(b1-4)Glc6S = target: Gal(b1-4)Glc6S
Summary of the method: as §1

Gal(b1-4)GlcNAc = target: Gal(b1-4)GlcNAc
Summary of the method: as §1

[21] = target: Gal(b1-4)GlcNAc(a1-6)Gal(b1-4)GlcNAc
Summary of the method: as §1

[22] = target: Gal(b1-4)GlcNAc(b1-2)Man(a1-3)[Gal(b1-4)GlcNAc(b1-2)Man(a1-6)]Man(b1-4)GlcNAc(b1-4)GlcNAc
Summary of the method: as §1

[23] = target: Gal(b1-4)GlcNAc(b1-3)Gal(b1-3)GlcNAc
Summary of the method: as §1

[24] = target: Gal(b1-4)GlcNAc(b1-3)Gal(b1-4)Glc
Summary of the method: as §1

[25] = target: Gal(b1-4)GlcNAc(b1-3)Gal(b1-4)GlcNAc
Summary of the method: as §1

B1: Surfactant Protein D (Human); Neck + Carbohydrate Recognition Domain (NCRD) (Homo sapiens) (protein)
chain: MLLFLLSALVLLTQPLGYLEAEMKTYSHRTMPSACTLVMCSSVESGLPGRDRDGREGPRGEKGDPGLPGAAGQAGMPGQAGPVGPKGDNGSVGEPGPKGDTGPSGPPGPPGVPGPAGREGALGKQGNIGPQGKPGPKGEAGPKGEVGAPGMQGSAGARGLAGPKGERGVPGERGVPGNTGAAGSAGAMGPQGSPGARGPPGLKGDKGIPGDKGAKGESGLPDVASLRQQVEALQGQVQHLQAAFSQYKKVELFPNGQSVGEKIFKTAQFVKPFTEAQLLCTQAGGQLASPRSAAENAALQQLVVAKNEAAFLSMTDSKTEGKFTYPTGESLVYSNWAPGEPNDDGGSEDCVEIFTNGKWNDVACGEKRLVVCEF
**Q.** How did the “glycan array binding signal (z-score)” value [1] turn out when B1 was run?
**A.** The value was -0.548.

**Q.** What about the “glycan array binding signal (z-score)” value (Fuc(a1-4)GlcNAc) of the same binder?
**A.** The value was 1.34.

**Q.** What about the “glycan array binding signal (z-score)” value (Fuc(b1-3)GlcNAc) of the same binder?
**A.** Its value is 1.95.

**Q.** What about the “glycan array binding signal (z-score)” value (Gal(a1-2)Gal) of the same binder?
**A.** Its value is -0.571.

**Q.** And the “glycan array binding signal (z-score)” value (Gal(a1-3)Gal)?
**A.** Its value is -0.455.

**Q.** What about the “glycan array binding signal (z-score)” value (Gal(a1-3)Gal(b1-3)GlcNAc) of the same binder?
**A.** Its value is -0.501.

**Q.** And the “glycan array binding signal (z-score)” value (Gal(a1-3)Gal(b1-4)Glc)?
**A.** Its value is -0.518.

**Q.** And the “glycan array binding signal (z-score)” value (Gal(a1-3)Gal(b1-4)GlcNAc)?
**A.** Its value is -0.42.

**Q.** And the “glycan array binding signal (z-score)” value [2]?
**A.** The value was -0.503.

**Q.** What about the “glycan array binding signal (z-score)” value (Gal(a1-3)GalNAc) of the same binder?
**A.** The value was -0.564.

**Q.** What about the “glycan array binding signal (z-score)” value [3] of the same binder?
**A.** Its value is -0.532.

**Q.** What about the “glycan array binding signal (z-score)” value (Gal(a1-4)Gal(b1-4)Glc) of the same binder?
**A.** Its value is -0.508.

**Q.** What about the “glycan array binding signal (z-score)” value (Gal(a1-4)Gal(b1-4)GlcNAc) of the same binder?
**A.** The value was -0.522.

**Q.** And the “glycan array binding signal (z-score)” value (Gal(a1-4)GlcNAc)?
**A.** Its value is -0.542.

**Q.** And the “glycan array binding signal (z-score)” value (Gal(a1-6)Glc)?
**A.** Its value is -0.586.

**Q.** What about the “glycan array binding signal (z-score)” value (Gal(b1-2)Gal) of the same binder?
**A.** The value was -0.572.

**Q.** What about the “glycan array binding signal (z-score)” value (Gal(b1-3)Gal) of the same binder?
**A.** The value was -0.504.

**Q.** What about the “glycan array binding signal (z-score)” value (Gal(b1-3)Gal(b1-4)GlcNAc) of the same binder?
**A.** Its value is -0.562.

**Q.** And the “glycan array binding signal (z-score)” value (Gal(b1-3)GalNAc)?
**A.** Its value is -0.521.

**Q.** What about the “glycan array binding signal (z-score)” value [4] of the same binder?
**A.** The value was -0.553.

**Q.** What about the “glycan array binding signal (z-score)” value [5] of the same binder?
**A.** The value was -0.463.

**Q.** And the “glycan array binding signal (z-score)” value [6]?
**A.** Its value is -0.438.

**Q.** And the “glycan array binding signal (z-score)” value (Gal(b1-3)GlcNAc)?
**A.** Its value is -0.532.

**Q.** And the “glycan array binding signal (z-score)” value [7]?
**A.** Its value is -0.61.

**Q.** What about the “glycan array binding signal (z-score)” value [8] of the same binder?
**A.** Its value is -0.538.

**Q.** And the “glycan array binding signal (z-score)” value [9]?
**A.** Its value is -0.569.

**Q.** What about the “glycan array binding signal (z-score)” value [10] of the same binder?
**A.** Its value is -0.457.

**Q.** And the “glycan array binding signal (z-score)” value [11]?
**A.** Its value is 0.524.

**Q.** What about the “glycan array binding signal (z-score)” value [12] of the same binder?
**A.** Its value is 1.38.

**Q.** And the “glycan array binding signal (z-score)” value [13]?
**A.** Its value is -0.512.

**Q.** And the “glycan array binding signal (z-score)” value [14]?
**A.** Its value is 2.11.

**Q.** What about the “glycan array binding signal (z-score)” value [15] of the same binder?
**A.** The value was -0.547.

**Q.** And the “glycan array binding signal (z-score)” value [16]?
**A.** The value was -0.534.

**Q.** And the “glycan array binding signal (z-score)” value [17]?
**A.** The value was -0.498.

**Q.** What about the “glycan array binding signal (z-score)” value [18] of the same binder?
**A.** Its value is -0.539.

**Q.** And the “glycan array binding signal (z-score)” value [19]?
**A.** The value was -0.523.

**Q.** What about the “glycan array binding signal (z-score)” value [20] of the same binder?
**A.** The value was -0.557.

**Q.** What about the “glycan array binding signal (z-score)” value (Gal(b1-4)Glc) of the same binder?
**A.** The value was -0.595.

**Q.** And the “glycan array binding signal (z-score)” value (Gal(b1-4)Glc6S)?
**A.** The value was -0.372.

**Q.** And the “glycan array binding signal (z-score)” value (Gal(b1-4)GlcNAc)?
**A.** The value was -0.574.

**Q.** And the “glycan array binding signal (z-score)” value [21]?
**A.** The value was -0.555.

**Q.** What about the “glycan array binding signal (z-score)” value [22] of the same binder?
**A.** Its value is -0.543.

**Q.** And the “glycan array binding signal (z-score)” value [23]?
**A.** Its value is -0.526.

**Q.** What about the “glycan array binding signal (z-score)” value [24] of the same binder?
**A.** The value was -0.354.

**Q.** And the “glycan array binding signal (z-score)” value [25]?
**A.** The value was -0.282.
